# Certain results were filed several times, with different values. This list holds those alone. How the calls were made is not given here. There may be further records. Values that stand side by side are repeats (runs, samples, wells, individuals or studies). Brackets tell where a record comes from. Letters hold for one entry only.
# Tested on: CCRIS mutagenicity, Ames/micronucleus/aberration tests
# Assay: CCRIS mutagenicity studies
# Details: Test System: AMES SALMONELLA TYPHIMURIUM
# [1] = Strain/Indicator: TA100, Metabolic Activation: NONE, Method: PREINCUBATION
# [2] = Strain/Indicator: TA1538, Metabolic Activation: RAT, LIVER, S-9, AROCLOR 1254, Method: STANDARD PLATE
# [3] = Strain/Indicator: TA100, Metabolic Activation: NONE, Method: STANDARD PLATE
# [4] = Strain/Indicator: TA98, Metabolic Activation: NONE, Method: STANDARD PLATE
# [5] = Strain/Indicator: TA100, Metabolic Activation: RAT, LIVER, S-9, Method: STANDARD PLATE
smiles,measurement,setting,value
C=C(C=O)CCC,mutagenic call,[1],inactive; negative [study A] and active; positive [study B]
Nc1cc2c3ccccc3ccc2c2ccccc12,mutagenic call,"Strain/Indicator: TA1537, Metabolic Activation: RAT, LIVER, S-9, AROCLOR 1254, Method: STANDARD PLATE",inactive; negative [study A] and active; positive [study B]
same,mutagenic call,[2],inactive; negative [study A] and active; positive [study B]
CCOS(C)(=O)=O,mutagenic call,"Strain/Indicator: TA98, Metabolic Activation: RAT, LIVER, S-9, AROCLOR 1254, Method: STANDARD PLATE",active; positive [study A] and inactive; negative [study B]
same,mutagenic call,"Strain/Indicator: TA1535, Metabolic Activation: NONE, Method: PREINCUBATION",active; positive [study A] and active; positive [study B] and inactive; negative [study C]
c1ccc2c(c1)ccc1c2ccc2cccnc21,mutagenic call,[3],"inactive; negative [study A, 0.1 to 50 µg/plate] and active; positive [study B, 0 to 50 µg/plate]"
c1ccc2c(c1)ccc1c3cccnc3ccc21,mutagenic call,[4],"inactive; negative [study A, 0.1 to 20 µg/plate] and active; positive [study B, 0 to 10 µg/plate]"
same,mutagenic call,[3],"inactive; negative [study A, 0.1 to 20 µg/plate] and active; positive [study B, 0 to 10 µg/plate]"
c1ccc2c(c1)ccc1cc3cnccc3cc12,mutagenic call,[4],"inactive; negative [study A, 0.1 to 50 µg/plate] and active; positive [study B, 0 to 50 µg/plate]"
same,mutagenic call,[3],"inactive; negative [study A, 0.1 to 50 µg/plate] and active; positive [study B, 0 to 50 µg/plate]"
O=NN1CCCCC1,mutagenic call,[5],inactive; negative [study A] and active; positive [study B]
CN(C)N=O,mutagenic call,[5],inactive; negative [study A] and active; positive [study B]
OC(O)C(Cl)(Cl)Cl,mutagenic call,[1],active; positive [study A] and inactive; negative [study B]
c1ccc2c(c1)cc1ccc3cc4ccccc4c4ccc2c1c34,mutagenic call,[2],inactive; negative [study A] and active; positive [study B]

# Reference: PubChem BioAssay AID1259407 (Chemical Carcinogenesis Research Information System (CCRIS), 2018)
